# In PubChem BioAssay AID1508623 (National Center for Advancing Translational Sciences (NCATS), 2021):
# Out of some 48,000 compounds screened, about 450 (0.94%) were called active. Not shown: some 19% with an inconclusive outcome. The call rests on the fitted dose curve; in most records, active means well fitted inhibition curve with a large enough effect; inconclusive means small, poorly fitted or top-dose-only effect; inactive means no such curve, though single readings can be large or run the other way. This is one part of the list.
# Assay: Primary qHTS for Identification of Small Molecule Inhibitors of Huntingtin Promoter Activity; further: nearly all actives have a fitted effect of over 50% in size
# Conditions: HEK293 HTT promoter firefly luciferase reporter (activity 0% = vehicle and -100% = no light), 24 h; series mostly up to 57.5 µM; activity change, negative = inhibition: at the top concentration
# Outline: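 Luminescence was read after Dual-Glo reagent and a 10 min room-temperature incubation. Values were normalized to vehicle (0% activity) and zero RLU (-100% activity). Reporter HEK293 cells had been exposed to compounds (up to 57.5 uM final) for 24 h.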
# Potency means the concentration at half of the fitted maximal effect.
Structure (SMILES),"activity change, negative = inhibition",Potency
O=C(NCc1ccccc1)c1ccc2c(c1)CCN2S(=O)(=O)c1ccccc1,inactive: -35.4%,–
CCC(=O)Nc1ccc(-c2nnc3c4ccccc4c(C)nn23)cc1,inactive: -1.32%,–
Cc1ccc(NC(=O)CSc2nc(=O)n(CCCN(C)C)c3c2CCC3)cc1F,inactive: -7.37%,–
CCCc1ccc(S(=O)(=O)N2CCC(Oc3ccc(-n4cnnn4)cc3)CC2)cc1,inactive: -33.4%,–
CNC1(C)C2CCC(C2)C1(C)C (stereo unspecified),inactive: -6.81%,–
CNC(=O)c1ccc(Nc2nnc(-c3ccc(C)c(S(=O)(=O)N(C)C)c3)c3ccccc23)cc1,inactive: -18.8%,–
CCOC(=O)c1[nH]c(C)c(CCC(=O)NCc2ccccc2Cl)c1C,inactive: -18.7%,–
COc1ccc(CCNC(=O)CCCn2c(=O)c3ccccc3n(Cc3c(C)cc(C)cc3C)c2=O)cc1OC,inactive: 2.13%,–
CCC(=O)N1c2ccc(S(=O)(=O)N3CCC(C)CC3)cc2CC1C (stereo unspecified),inactive: -30.6%,–
Cc1ccc(C)c(NC(=O)Cn2cc(C(=O)c3ccc(Cl)cc3)c(=O)c3ccc(C)nc32)c1,inactive: -8.48%,–
O=C(CC1C(=O)OCCN1Cc1ccccc1)Nc1ccc(F)cc1 (stereo unspecified),inactive: -21.7% [at 11.5 µM],–
CC1CCN(S(=O)(=O)c2ccc(C(=O)Nc3sc4c(c3C(N)=O)CC(C)(C)NC4(C)C)cc2)CC1,inactive: -16.3%,–
Cc1cccc(C)c1-n1ncc(C(=O)N2CCN(c3ccccn3)CC2)c1C1CCN(C(=O)OC(C)(C)C)CC1,inactive: -31.1%,–
N#Cc1ccc(CSc2nc3c(c(=O)[nH]2)CCC3)cc1,inactive: -10%,–
Cc1cccc(-c2nc3c4ccccc4nc(NCc4ccc(Cl)cc4)n3n2)c1,inactive: 7.26%,–
Cc1c(Cn2c(C)nc3c(C(=O)O)cc(N4CCOCC4)cc32)cccc1C(F)(F)F,inactive: -14.2%,–
COc1ccc(-c2cc(C(=O)NCc3ccc(F)cc3)c3c(-c4ccc(F)cc4)[nH]nc3n2)cc1OC,inactive: -29.6%,–
CCc1ccc2oc(-c3cc(NC(=O)C(C)C)cc(C)c3O)nc2c1,inactive: -5.61%,–
CC(C)Cn1c(=O)c2sccc2n2c(CCCC(=O)NCc3ccccc3Cl)nnc12,inactive: -12.9%,–
COc1cccc(CNC(=O)C2CCN(S(=O)(=O)c3cn(C)cn3)CC2)c1,inactive: -15.5%,–
CC(=O)N1c2ccc(S(=O)(=O)N3CCCCCC3)cc2CC1C(=O)NCc1ccc(Cl)cc1 (stereo unspecified),inactive: -17.5%,–

Structure (SMILES),"activity change, negative = inhibition",Potency
O=C(Cn1cc(SCc2ccc(C(F)(F)F)cc2)c2ccccc21)N1CCCC1,inactive: -14.9%,–
CCCOc1ccc(-c2nonc2NC(=O)c2oc3ccc(C)cc3c2C)cc1OCCC,inactive: -13.2%,–
CCOC(=O)N1CCC(NC(=O)c2cnn(-c3cccc(Cl)c3C)c2C2CCN(C(=O)OC(C)(C)C)CC2)CC1,inactive: 6.95%,–
CN1CCN(c2nc3c(S(=O)(=O)c4ccc(Br)cc4)nnn3c3ccsc23)CC1,inactive: 4.92%,–
Oc1ccc(Cl)cc1C1=Nc2ccccc2N=C(c2cccc(Br)c2)C1,inactive: 0.0657%,–
COc1cccc(CN2CCc3nc(N4CCN(c5ncccn5)CC4)ncc3C2)c1,–,active: 25.1 µM
COc1ccc(OC)c(NC(=O)c2cc(CN3CCCC3)on2)c1,inactive: -3.06%,–
CC(=O)Nc1ccc(NC(=O)CCNS(=O)(=O)c2cccc3nsnc23)cc1,inactive: -6.85%,–
CCC(C)(CN(C)C)OC(=O)c1ccccc1 (stereo unspecified),inactive: 8.24%,–
CCc1ccc2oc(-c3cccc(NC(=O)c4ccc(N5CCC(C)CC5)c([N+](=O)[O-])c4)c3)nc2c1,inactive: -9.93%,–
COc1cccc(NC(=O)Cn2cc(S(=O)(=O)N3CCCC3)c(S(=O)(=O)N3CCCC3)c2)c1,inactive: -14.3% [at 11.5 µM],–
Cc1ccccc1CNC(=O)Cn1ncn2nc(-c3cccs3)cc2c1=O,inactive: -5.86%,–
Cc1cccc(CSc2cn(CC(=O)N3CCCC3)c3ccccc23)c1,inactive: 37.4%,–
CCC(Oc1ccccc1)C(=O)Nc1ccc2oc(-c3ccc(OC)cc3)nc2c1 (stereo unspecified),inactive: 14.1%,–
O=C(COc1ccc(S(=O)(=O)NC2CCCCC2)cc1)Nc1ccc(C(F)(F)F)cc1,inactive: -25.4%,–
Cc1cc(N2CCCCC2)nc2ccc(NC(=O)/C=C/c3ccccc3OC(C)C)cc12,inactive: -21.8%,–
CCOc1cccc(CC(=O)N2CCc3c([nH]c4ccccc34)C2c2ccc(F)cc2)c1OCC (stereo unspecified),inactive: -26.1%,–
Cc1ccc(CNC(=O)CSCc2ccc(F)cc2)cc1,inactive: -14.9%,–
O=S(=O)(c1ccccc1)n1nc(-c2ccccc2)nc1NCc1ccc(Cl)cc1,inactive: -12.7%,–
CCCCNC(=O)CCn1c(=O)c2ccccc2n(Cc2ccccc2C#N)c1=O,inactive: -7.66%,–
CCOc1ccc(CC(=O)Nc2c(C(=O)c3ccc(C)cc3)oc3ccccc23)cc1OCC,inactive: -0.434%,–

Structure (SMILES),"activity change, negative = inhibition",Potency
CCC(=O)N1CCc2cc(Br)cc(S(=O)(=O)N3CCCC(C(=O)Nc4cccc(Cl)c4C)C3)c21 (stereo unspecified),inactive: -13.6%,–
Cc1ccc(C(=O)COC(=O)C(CC(C)C)NC(=O)C2CCC(C)CC2)cc1 (stereo unspecified),inactive: -10.6%,–
O=C(O)CCc1nc2ccccc2[nH]1,inactive: 3.6%,–
COc1cc(C2N=C(N)Nc3nc4ccccc4n32)ccc1OCCC(C)C (stereo unspecified),inactive: -14.9%,–
CC(=O)c1cccc(NC(=O)C2CCCN(c3nnc(-n4cccc4)s3)C2)c1 (stereo unspecified),inactive: -18.3%,–
O=C(Cc1cccc([N+](=O)[O-])c1)NCc1nc2cccnc2n1Cc1ccc(F)cc1,inactive: -19.6%,–
Cn1c(=O)cc(OCCCC(=O)Nc2ccc(F)cc2)c2ccccc21,inactive: 29.9%,–
CCOc1ccc(NS(=O)(=O)c2cc(Br)cc3c2N(C(=O)C2CC2)CC3)cc1,inactive: -22.2%,–
CCCN(CCC)CCCNC(=O)C1CCCN(S(=O)(=O)c2cccc3nsnc23)C1 (stereo unspecified),inactive: -0.113%,–
Cc1ccccc1-c1nc(CS(=O)(=O)CC(=O)N2CCN(c3ccccc3)CC2)c(C)o1,inactive: -26.3%,–
CCC1CCc2nc3sc(C(=O)Nc4ccc(F)cc4F)c(N)c3cc2C1 (stereo unspecified),inactive: 15.4%,–
CC(=O)Nc1cccc(C(=O)NCc2ccc3c(c2)CCN3C(=O)c2ccccc2)c1,inactive: -22.9%,–
CCOc1ccc(CCNC(=O)Cn2nnc(-c3ccccc3)n2)cc1OCC,inactive: -10.1%,–
COc1cc(NS(=O)(=O)c2ccc(NC(=O)c3ccccc3C(=O)O)cc2)nc(OC)n1,inactive: -7.69%,–
CCCCNC(=O)CSc1nc2nc(C)c(Cc3ccccc3C)c(C)n2n1,inactive: -22.3%,–
COc1cccc(C(=O)Nc2cc(-c3ccccc3)no2)c1,inactive: 39.1%,–
CC(C)CC(=O)Nc1ccc(C(=O)OCc2cc(=O)n3nc(C(C)C)sc3n2)cc1,inactive: -31.2%,–
COc1ccc(C(=O)N2CC(=O)Nc3ccc(F)cc3C2c2ccc(F)cc2)c(OC)c1 (stereo unspecified),inactive: -33.1%,–
CCOC(=O)c1sc(NC(=O)/C=C/c2ccc(OCC)cc2)c(C(=O)OCC)c1C,inactive: 16.2%,–
